The supplement of paper PMC11741623
Some of the results follow. Interaction screen of human proteins with wild-type SARS-CoV-2 proteins by split-DHFR complementation in yeast, 1 µg/mL methotrexate. Value = fitness of the pair (three or more lineages) minus that of the viral protein without a human partner, on a scale set by negative (0) and fused positive (1) controls, mean of up to three cultures; higher = more likely to interact. Active = false discovery rate below 0.05 (one-sided t-test) in at least one culture. Nearly all pairs are not hits, and differences among them are mostly noise (correlation between cultures about 0.3); most hits were seen in one culture only. Human sequences are the Swiss-Prot entries looked up by gene name; the clone may be another isoform. NSP2 values were corrected by the authors for a growth advantage. Listed are human proteins with a hit and a random twelfth of the others.

B1: INTU, Q9ULD6 (protein)
chain: MASVASCDSRPSSDELPGDPSSQEEDEDYDFEDRVSDSGSYSSASSDYDDLEPEWLDSVQKNGELFYLELSEDEEESLLPETPTVNHVRFSENEIIIEDDYKERKKYEPKLKQFTKILRRKRLLPKRCNKKNSNDNGPVSILKHQSNQKTGVIVQQRYKDVNVYVNPKKLTVIKAKEQLKLLEVLVGIIHQTKWSWRRTGKQGDGERLVVHGLLPGGSAMKSGQVLIGDVLVAVNDVDVTTENIERVLSCIPGPMQVKLTFENAYDVKRETSHPRQKKTQSNTSDLVKLLWGEEVEGIQQSGLNTPHIIMYLTLQLDSETSKEEQEILYHYPMSEASQKLKSVRGIFLTLCDMLENVTGTQVTSSSLLLNGKQIHVAYWKESDKLLLIGLPAEEVPLPRLRNMIENVIQTLKFMYGSLDSAFCQIENVPRLDHFFNLFFQRALQPAKLHSSASPSAQQYDASSAVLLDNLPGVRWLTLPLEIKMELDMALSDLEAADFAELSEDYYDMRRLYTILGSSLFYKGYLICSHLPKDDLIDIAVYCRHYCLLPLAAKQRIGQLIIWREVFPQHHLRPLADSSTEVFPEPEGRYFLLVVGLKHYMLCVLLEAGGCASKAIGSPGPDCVYVDQVKTTLHQLDGVDSRIDERLASSPVPCLSCADWFLTGSREKTDSLTTSPILSRLQGTSKVATSPTCRRTLFGDYSLKTRKPSPSCSSGGSDNGCEGGEDDGFSPHTTPDAVRKQRESQGSDGLEESGTLLKVTKKKSTLPNPFHLGNLKKDLPEKELEIYNTVKLTSGPENTLFHYVALETVQGIFITPTLEEVAQLSGSIHPQLIKNFHQCCLSIRAVFQQTLVEEKKKGLNSGDHSDSAKSVSSLNPVKEHGVLFECSPGNWTDQKKAPPVMAYWVVGRLFLHPKPQELYVCFHDSVTEIAIEIAFKLFFGLTL
B2: MUC20, Q8N307 (protein)
chain: MGCLWGLALPLFFFCWEVGVSGSSAGPSTRRADTAMTTDDTEVPAMTLAPGHAALETQTLSAETSSRASTPAGPIPEAETRGAKRISPARETRSFTKTSPNFMVLIATSVETSAASGSPEGAGMTTVQTITGSDPREAIFDTLCTDDSSEEAKTLTMDILTLAHTSTEAKGLSSESSASSDSPHPVITPSRASESSASSDGPHPVITPSRASESSASSDGPHPVITPSRASESSASSDGPHPVITPSRASESSASSDGPHPVITPSRASESSASSDGPHPVITPSRASESSASSDGPHPVITPSRASESSASSDGPHPVITPSRASESSASSDGPHPVITPSRASESSASSDGLHPVITPSRASESSASSDGPHPVITPSRASESSASSDGPHPVITPSWSPGSDVTLLAEALVTVTNIEVINCSITEIETTTSSIPGASDTDLIPTEGVKASSTSDPPALPDSTEAKPHITEVTASAETLSTAGTTESAAPDATVGTPLPTNSATEREVTAPGATTLSGALVTVSRNPLEETSALSVETPSYVKVSGAAPVSIEAGSAVGKTTSFAGSSASSYSPSEAALKNFTPSETPTMDIATKGPFPTSRDPLPSVPPTTTNSSRGTNSTLAKITTSAKTTMKPPTATPTTARTRPTTDVSAGENGGFLLLRLSVASPEDLTDPRVAERLMQQLHRELHAHAPHFQVSLLRVRRG

biological target: SARS-CoV-2 M; assay: yeast fitness gain over the viral ORF with no human partner (scaled fitness); higher = more likely to interact
Protocol: (§1)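 Split mouse DHFR complementation in pooled diploid yeast: human ORFeome clones carry one fragment and viral ORFs the other; barcoded lineages compete in 1 µg/mL methotrexate and fitness is read by barcode sequencing in up to three cultures.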

Binder | yeast fitness gain
B1 | inactive: -0.134
B2 | inactive: -0.0653

biological target: SARS-CoV-2 NSP10; assay: as above
Protocol: as §1

Binder | yeast fitness gain
B1 | inactive: 0.0554
B2 | inactive: 0.00439

biological target: SARS-CoV-2 NSP12; assay: as above
Protocol: as §1

Binder | yeast fitness gain
B1 | inactive: 0.109
B2 | inactive: -0.0749

biological target: SARS-CoV-2 NSP13; assay: as above
Protocol: as §1

Binder | yeast fitness gain
B1 | inactive: -0.0886
B2 | inactive: -0.0186

biological target: SARS-CoV-2 NSP15; assay: as above
Protocol: as §1

Binder | yeast fitness gain
B1 | inactive: -0.00152

biological target: SARS-CoV-2 NSP2; assay: as above
Protocol: as §1

Binder | yeast fitness gain
B1 | inactive: -0.117
B2 | inactive: -0.0468

biological target: SARS-CoV-2 NSP5; assay: as above
Protocol: as §1

Binder | yeast fitness gain
B1 | inactive: -8.1e-05
B2 | inactive: 0.0518

biological target: SARS-CoV-2 NSP6; assay: as above
Protocol: as §1

Binder | yeast fitness gain
B1 | inactive: -0.00921
B2 | inactive: 0.0568

biological target: SARS-CoV-2 ORF10; assay: as above
Protocol: as §1

Binder | yeast fitness gain
B1 | inactive: -0.132

biological target: SARS-CoV-2 ORF3B; assay: as above
Protocol: as §1

Binder | yeast fitness gain
B1 | inactive: -0.0179
B2 | inactive: -0.0612

biological target: SARS-CoV-2 ORF6; assay: as above
Protocol: as §1

Binder | yeast fitness gain
B1 | inactive: -0.0634
B2 | inactive: -0.076

biological target: SARS-CoV-2 ORF7A; assay: as above
Protocol: as §1

Binder | yeast fitness gain
B1 | inactive: 0.146

biological target: SARS-CoV-2 ORF7B; assay: as above
Protocol: as §1

Binder | yeast fitness gain
B1 | inactive: -0.0596
B2 | inactive: -0.0954

biological target: SARS-CoV-2 ORF8; assay: as above
Protocol: as §1

Binder | yeast fitness gain
B1 | inactive: -0.0986
B2 | inactive: 0.0732

biological target: SARS-CoV-2 ORF9B; assay: as above
Protocol: as §1

Binder | yeast fitness gain
B1 | inactive: -0.0577
B2 | inactive: -0.041

biological target: SARS-CoV-2 ORF9Bwu (the 73-codon ORF); assay: as above
Protocol: as §1

Binder | yeast fitness gain
B1 | inactive: 0.088

biological target: SARS-CoV-2 S; assay: as above
Protocol: as §1

Binder | yeast fitness gain
B1 | inactive: 0.232
B2 | inactive: -0.337

biological target: SARS-CoV-2 NSP1; assay: as above
Protocol: as §1

Binder | yeast fitness gain
B2 | inactive: 0.00207

biological target: SARS-CoV-2 NSP8; assay: as above
Protocol: as §1

Binder | yeast fitness gain
B2 | inactive: -0.0869

biological target: SARS-CoV-2 NSP9; assay: as above
Protocol: as §1

Binder | yeast fitness gain
B2 | inactive: -0.0809
